In PubChem BioAssay AID686971 (National Center for Advancing Translational Sciences (NCATS), 2013):
The whole screen tested about 360,000 compounds, of which about 7,500 (2.1%) were called active. The inconclusive results got no clear call from the source; some entries with a clear call stand among them for comparison. Calls come from the whole dose curve; as a rule, active = well fitted cell-killing curve with a large enough effect; inconclusive = small, poorly fitted or top-dose-only effect, or effect the other way, or another doubt; inactive = no such curve, though single readings can be large or run the other way. No potency is given beside an inconclusive call; the fits are too rough.

Assay: qHTS for induction of synthetic lethality in tumor cells producing 2HG: qHTS for the HT-1080-IDH1KD cell line;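 for activity, negative = toxicity: 0% = DMSO wells and -100% = cell-free medium wells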
Details: HT-1080 IDH1 knockdown viability, ATP luminescence, 48 h; activity, negative = toxicity: at 46.1 µM (top of the series) unless noted
Method in brief: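 CellTiter-Glo luminescence after 48 h compound exposure at 37 degrees C of IDH1-knockdown HT-1080 cells in 5% FBS RPMI. %Activity scaled between DMSO wells and cell-free media wells, with curves fitted and assigned curve classes.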
Potency is the fitted concentration of half-maximal effect; tags give direction and shape of the fitted curve.

Compound	activity, negative = toxicity	Potency
CC(/C=C/c1ccccc1)=N\Nc1nc(C)cc(C)n1	inactive: 8.39%	
O=C1CSCN1c1cc(Cl)ccc1Cl	inactive: 14.7%	
CCC(c1nnnn1-c1ccc2c(c1)OCCO2)N1CCN(c2ccc(F)cc2)CC1 (stereo not drawn)		inconclusive [cytotoxic, single point]
COc1ccc(NC(=O)c2c(Nc3ccccc3)sc(C(=O)c3ccc(F)cc3)c2N)cc1		inconclusive [cytotoxic, single point]
O=C(NCc1ccccc1)C1c2ccccc2OCC(=O)N1CCc1c[nH]c2ccccc12 (stereo not drawn)	inactive: 4.75%	
N#C/C(=C/c1ccc(N2CCCCCC2)o1)c1cccc(F)c1		active: 6.31 µM
CCCCN(CCCC)Cc1cc(=O)oc2ccc3ccccc3c12		inconclusive [cytotoxic, single point]
COc1ccc(C[C@H]2CN3C(=NC[C@@H]3Cc3ccccc3)N2CCNC(=O)c2ccc(C)c(Br)c2)cc1		inconclusive [cytotoxic, single point]
NC(=O)c1c(NC(=O)CN2CCN(S(=O)(=O)c3ccccc3)CC2)sc2c1CCC2	inactive: -11%	
Cc1ccc(NC(=O)Cn2nnc(C(=O)NCc3cccs3)c2N)cc1		inconclusive [cytotoxic, single point]
OC(c1ccccc1)(c1nc(-c2ccc(Cl)cc2)cs1)C(F)(F)F (stereo not drawn)		inconclusive [cytotoxic, single point]
COc1ccc(CNC(=O)C(=O)NCc2ccncc2)cc1	inconclusive: -3.16% [cytotoxic]	
CC1CC(C)(C)Nc2ccc(N=O)cc21 (stereo not drawn)		active: 18.4 µM
CC(Sc1ccc(S(=O)(=O)N2CCCCCC2)cn1)C(N)=O (stereo not drawn)	inactive: -1.48%	
CN(Cc1ccc(Cl)s1)C(=O)CCl		active: 8.2 µM
Cc1ccc2[nH]c(=O)c(CN(CCCN3CCOCC3)C(=O)Nc3cccc(Cl)c3)cc2c1		inconclusive [cytotoxic, single point]
S=C(NCCc1ccccc1)N1CCCC1	inactive: -5.34%	
CCN(CC(=O)Nc1cccc(S(=O)(=O)N2CCOCC2)c1)Cc1ccccc1	inactive: -0.516%	
O=C1c2[nH]nc(-c3ccccc3O)c2C(c2cccc(O)c2)N1Cc1ccco1 (stereo not drawn)		inconclusive [cytotoxic, single point]
COc1ccc(CSCC(=O)N/N=C/c2ccc(OCC(=O)N3CCCCC3)cc2)cc1	inactive: 10.1%	
COc1ccc(C)c2sc(NC(=O)CCS(=O)(=O)c3ccccc3)nc12		inconclusive [cytotoxic, partial curve, poor fit]
Cc1ccc(NC(=O)c2cc(-c3ccccc3)n[nH]2)cc1	inactive: 2.44%	
Cc1cc(C)c(NC(=O)Cn2c(=O)n(Cc3ccco3)c(=O)c3ccccc32)c(C)c1		inconclusive [cytotoxic, single point]
O=C(NCC1CCCO1)c1ccc([N+](=O)[O-])s1 (stereo not drawn)	inactive: -12.7%	
COc1ccc(CNC(=O)CCS(=O)(=O)c2ccc3c(c2)CCN3C(C)=O)cc1		inconclusive [rising, single point]

Compound	activity, negative = toxicity	Potency
COc1ccc(Cl)cc1C(=O)Nc1nc2ccccc2[nH]1		inconclusive [cytotoxic, single point]
Cn1c(=O)n(C)c2cc(NS(=O)(=O)c3ccccc3)ccc21	inactive: -19.1%	
CCCCNC(=O)C1(C)CCN1C(=O)c1cc(-c2cccs2)oc1C (stereo not drawn)		active: 23.1 µM
Cc1ccc([N+](=O)[O-])cc1N(CC(=O)Nc1ccc(S(=O)(=O)Nc2cccc(C(F)(F)F)c2)cc1)S(C)(=O)=O		inconclusive [cytotoxic, single point]
CN1CCN(Cc2nc3ccccc3c(=O)n2Cc2nc(-c3cccc([N+](=O)[O-])c3)cs2)CC1		active: 23.1 µM
Cc1nc2ccccc2n1/N=C/c1ccc([N+](=O)[O-])s1		inconclusive [cytotoxic, partial curve]
CCC(C)c1ccccc1N1CC(C(=O)Nc2cccc(S(=O)(=O)N3CCOCC3)c2)CC1=O (stereo not drawn)	inactive: 0.86%	
Cn1c(/C=C(\C#N)C(N)=S)ccc1-c1ccc(Br)cc1		inconclusive [cytotoxic, single point]
Cc1cc(C(=O)CSc2nc3ccccc3c(=O)n2C)c(C)n1Cc1ccc2c(c1)OCO2		active: 5.8 µM
COc1ccc(CNC(=O)COC(=O)c2ccccc2OCC(=O)Nc2ccc(SC(F)F)cc2)cc1	inactive: -5.67%	
O=C(CNC(=O)c1[nH]cnc1C(=O)N[C@@H](Cc1ccccc1)C(=O)OCc1ccccc1)OCc1ccccc1	inconclusive: -0.0977% [cytotoxic]	
NS(=O)(=O)c1ccc(N2N=C(c3ccc(Br)cc3)CC2c2ccc(F)cc2)cc1 (stereo not drawn)		active: 11.6 µM
COc1ccc(NC(=O)c2cccnc2N2CCCC2)cc1		inconclusive [cytotoxic, single point]
Cc1ccsc1C(=O)N1CC(=O)Nc2ccccc21		active: 18.4 µM
COc1cc2c(cc1NC(=O)c1cccnc1)oc1ccccc12		inconclusive [cytotoxic, single point]
O=C(O)CCCCCCCCc1cn(Cc2ccc(C(=O)c3ccccc3)cc2)nn1		active: 4.61 µM
COc1cccc(-c2sc3ccc(OC)cc3c2-c2ccc(OCCN3CCCCC3)cc2)c1		inconclusive [cytotoxic, single point]
O=C(N/N=C/c1cc([N+](=O)[O-])ccc1O)c1ccc2c(c1)OCCO2		inconclusive [cytotoxic, partial curve]
Cc1cc2ncn(S(=O)(=O)c3ccc(S(=O)(=O)N4CCCCCC4)cc3)c2cc1C		inconclusive [rising, partial curve, poor fit]
CC1CCc2c(sc3nc(SCC(=O)NCc4ccco4)nc(N)c23)C1 (stereo not drawn)		inconclusive [cytotoxic, single point]
O=C(N/N=C/c1cccn1-c1ccc(O)cc1)c1cccc2ccccc12		inconclusive [cytotoxic, single point]
CCCCNC(=O)N(O)C1N(/N=C/c2ccco2)C(=S)SC1(C)C (stereo not drawn)	inactive: 8.48%	
CCCCSc1ncc(C(=O)OCC)c(N)n1		inconclusive [cytotoxic, single point]
CC(C)(O)C#Cc1ccc(CN2CCN(CCc3ccccc3)C(CCO)C2)s1 (stereo not drawn)	inactive: 2.1%	
O=C(Nc1ccc(Oc2cccc3ccccc23)cc1)c1ccco1		inconclusive [cytotoxic, single point]

Compound	activity, negative = toxicity	Potency
COc1ccc(CN2CCN(Cc3cccn3-c3ncccn3)CC2CCO)c(C)c1C (stereo not drawn)		inconclusive [cytotoxic, partial curve]
Cc1nnc(SC(=O)N2c3ccccc3Sc3ccccc32)s1		active: 7.08 µM
COc1ccc(CCNC(=O)C2CCN(S(=O)(=O)c3ccc4c(c3)oc(=O)n4C)CC2)cc1OC	inactive: 15.8%	
O=C(Nc1cccnc1)c1ccc(COCC(F)(F)F)cc1	inactive: -3.71%	
COc1ccc(/C=C/C(=O)NCC(=O)N=Nc2c(O)[nH]c3ccc([N+](=O)[O-])cc23)cc1	inactive: 1.51%	
Cc1ccc(C2=NC(C)(C)N=C2SCC(=O)Nc2ccc(Cl)cc2)cc1		inconclusive [cytotoxic, partial curve]
C[C@@H]1CC[C@H](Cc2ccc(-n3cccc3)cc2)N1C(=O)OC(C)(C)C	inactive: 3.58%	
CCCCNC(=O)c1ccc2nc(CC)c(N(CCC(C)C)CCN(C)C)n2c1		inconclusive [cytotoxic, single point]
CC1CC(C)CN(CCOc2cccc(Cl)c2Cl)C1 (stereo not drawn)	inactive: -6.92%	
Cc1nnc(C)c2c(C)n(C(C)c3ccccc3)c(C)c12 (stereo not drawn)		inconclusive [cytotoxic, single point]
CCOC(=O)[C@]12CCC=C1N(CCC1=CCCCC1)C(=O)[C@H](CC(=O)NCc1ccc(C)o1)C2	inactive: -10.4%	
CCOc1cc(/C=N/NC(=O)c2cc3c(ccc4ccccc43)o2)ccc1O		inconclusive [cytotoxic, partial curve, poor fit]
CC(=O)n1c2c(c3ccccc31)OC(N)=C(C#N)C2c1ccc(C(C)C)cc1 (stereo not drawn)		inconclusive [cytotoxic, single point]
O=C(CSc1nc(-c2cccs2)cc(C(F)(F)F)n1)Nc1cc(OCC(F)(F)C(F)F)cc([N+](=O)[O-])c1		inconclusive [cytotoxic, partial curve]
CCOC(=O)CSc1nc2ccccc2c(=O)n1CC	inactive: 6.49%	
CCc1nnc(NC(=O)c2oc3ccccc3c2COC(C)C)s1	inactive: -7.36%	
Cc1nn(Cc2ccc(Cl)c(Cl)c2)c(C)c1NC(=O)c1cc(-c2ccc3c(c2)OCO3)on1		inconclusive [cytotoxic, single point]
COc1ccc(-c2cc(-c3ccc(O)cc3)nc(N)c2C#N)cc1OC		inconclusive [cytotoxic, single point]
Clc1ccccc1N=Nc1ccccn1	inconclusive: 17.5%	
COc1ccc(CNC(=O)Nc2ccc3c(c2)c(=O)n(C)n3Cc2cccc(C(F)(F)F)c2)cc1		inconclusive [cytotoxic, single point]
c1ccc(-c2ccc3c(c2)c2c4n3CCN=C4CCC2)cc1		inconclusive [cytotoxic, single point]
Cc1ccc(NC(=O)C(OC(=O)c2ccc(C=O)cc2)c2ccccc2)cc1Cl (stereo not drawn)		active: 23.1 µM
O=C1NC(=Nc2cccnc2)S/C1=C/c1ccc(F)cc1		inconclusive [cytotoxic, full curve]
